# Data published in PubChem BioAssay (Tox21).
# “And” between values parts separate entries of the source, which are not always exact repeats. Equal entries are not always repeated. The shares of active, inactive and inconclusive entries below differ from those in the screen. A potency beside an inconclusive call is a rough fit, not a confirmed value. Where a structure was tested more than once in an assay, its records may differ in their call. The source made the active and inactive calls. Unless noted, calls follow the shape of the dose curve; as a rule, active = well fitted inhibition curve with a large enough effect in the repeat runs; inconclusive = weak or mixed curves; inactive = no such curve, though single readings can be large or run the other way.
# Tested on: not listed separately
# Assay: qHTS assay to identify small molecule antagonists of the thyroid receptor (TR) signaling pathway (AID 743065); also: nearly all actives have a fitted effect of over 55% in size
# Settings: GH3.TRE-Luc, T3-stimulated luciferase inhibition, 23.5 h; series mostly up to 70.3 µM
# Summary of the method: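 GH3.TRE-Luc rat pituitary cells (two TREs driving luciferase) were dosed with compound, then stimulated with 1 nM T3 (final) for 23.5 h at 37 C. ONE-Glo luminescence was the read-out, with CellTiter-Fluor fluorescence as the cytotoxicity counter-screen.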
# % is scaled to controls: 0 for no effect and ±100 for the full control effect; potency is read from the fitted curve at half-maximal effect; tags tell the direction and shape of the fitted curve or compound fluorescence and quenching.
row,Structure (SMILES),Potency
1,O=NN1CCNCC1,inactive
2,COc1ccc(C(=O)N2CCCC2=O)cc1,inactive
3,N#C/C(N)=C(/N)C#N,inactive
4,CC(C)(C)OOC(C)(C)C,inactive
5,CN/C(=N\[N+](=O)[O-])NCc1cnc(Cl)s1,inactive
6,OCC1CO1 (stereo unspecified),inactive
7,O=C1CN=C(c2ccccc2)c2cc(Cl)ccc2N1CC1CC1,active: 21.1 µM and active: 51 µM
8,CCCCCCCCC(=O)NCc1ccc(O)c(OC)c1,"inconclusive: 33.5 µM [inhibitor, single point]"
9,O=[N+]([O-])c1ccc(CBr)cc1,inactive
10,O=C(O)C(Br)CBr (stereo unspecified),inactive
11,Oc1ccc(C(=C(Cl)Cl)c2ccc(O)cc2)cc1,"inconclusive: 21.6 µM [inhibitor, partial curve]"
12,CC[C@@H](CO)NC(=O)[C@@H]1C=C2c3cccc4c3c(cn4C)C[C@H]2N(C)C1,"inconclusive: 13.3 µM [inhibitor, partial curve, poor fit]"
13,Cc1cc(O)ccc1Cl,inactive
14,C[C@]12CCC(=O)C(O)=C1CC[C@@H]1[C@@H]2CC[C@]2(C)C(=O)CC[C@@H]12,"inconclusive: 26.6 µM [inhibitor, partial curve, poor fit] and inconclusive: 68.6 µM [inhibitor, single point]"
15,CC(C)CC(C)N (stereo unspecified),inactive
16,Cc1ccc(N)cc1Cl,inactive
17,CN(C)CCC#N,inactive
18,CC[C@H]1C[C@H]2[C@@H]3CCC4=CC(=O)CC[C@@H]4[C@H]3CC[C@]2(C)[C@H]1O,active: 21.1 µM
19,CN1C(=O)CN=C(c2ccccc2)c2cc(Cl)ccc21,"inconclusive: 23.7 µM [inhibitor, partial curve] and inconclusive: 69.6 µM [inhibitor]"
20,CNC(=O)NC(O)C(Cl)(Cl)Cl (stereo unspecified),inactive
21,Nc1n[nH]c(N)n1,inactive
22,CSC(=O)c1c(C(F)F)nc(C(F)(F)F)c(C(=O)SC)c1CC(C)C,inconclusive: 68.2 µM [inhibitor]
23,CCc1ccccc1N,inactive
24,C[C@]12C=CC(=O)C=C1CC[C@@H]1[C@@H]2CC[C@@]2(C)[C@H]1CC[C@]2(C)O,"inconclusive: 29.8 µM [inhibitor, partial curve, poor fit]"
25,C=CCc1ccc(OC)cc1,inactive
26,CC(O)(CS(=O)(=O)c1ccc(F)cc1)C(=O)Nc1ccc(C#N)c(C(F)(F)F)c1 (stereo unspecified),"inconclusive: 29.8 µM [inhibitor] and inconclusive: 15.9 µM [inhibitor, partial curve]"
27,O=C(O)CCCCCCNC1c2ccccc2CCc2ccccc21,"inconclusive: 21.1 µM [inhibitor, partial curve, poor fit]"
28,C[N+](C)(C)CCOC(=O)C(O)(c1ccccc1)c1ccccc1,inactive
29,Cc1c([N+](=O)[O-])cc2c(c1[N+](=O)[O-])C(C)(C)CC2(C)C,"inconclusive: 68.6 µM [inhibitor, single point]"

# Tested on: thyroid hormone receptor (rat, GH3 cells)
# Assay: qHTS assay to identify small molecule agonists of the thyroid receptor (TR) signaling pathway (AID 743066; calls by dose curve)
# Settings: GH3.TRE-Luc cells, TR agonist luciferase, 24 h; activation: at 83.9 µM (top of the series) unless noted
Structure (SMILES),activation,Potency
CC(C)(C)OOC(C)(C)C,inconclusive: 0.528% [phenotype inactive],–
CN/C(=N\[N+](=O)[O-])NCc1cnc(Cl)s1,–,inactive
OCC1CO1 (stereo unspecified),–,"inconclusive: 27.3 µM [activator, full curve, poor fit]"
O=C1CN=C(c2ccccc2)c2cc(Cl)ccc2N1CC1CC1,inconclusive: -6.23% [phenotype inactive],–
Cc1cc(O)ccc1Cl,–,active: 27.3 µM
CSC(=O)c1c(C(F)F)nc(C(F)(F)F)c(C(=O)SC)c1CC(C)C,inconclusive: -9.72% [phenotype inactive],–
O=C(O)CCCCCCNC1c2ccccc2CCc2ccccc21,–,active: 23.7 µM

# Target: Estrogen receptor (Homo sapiens) (UniProt P03372)
# UniProt P03372, sequence (P03372 whole entry, looked up): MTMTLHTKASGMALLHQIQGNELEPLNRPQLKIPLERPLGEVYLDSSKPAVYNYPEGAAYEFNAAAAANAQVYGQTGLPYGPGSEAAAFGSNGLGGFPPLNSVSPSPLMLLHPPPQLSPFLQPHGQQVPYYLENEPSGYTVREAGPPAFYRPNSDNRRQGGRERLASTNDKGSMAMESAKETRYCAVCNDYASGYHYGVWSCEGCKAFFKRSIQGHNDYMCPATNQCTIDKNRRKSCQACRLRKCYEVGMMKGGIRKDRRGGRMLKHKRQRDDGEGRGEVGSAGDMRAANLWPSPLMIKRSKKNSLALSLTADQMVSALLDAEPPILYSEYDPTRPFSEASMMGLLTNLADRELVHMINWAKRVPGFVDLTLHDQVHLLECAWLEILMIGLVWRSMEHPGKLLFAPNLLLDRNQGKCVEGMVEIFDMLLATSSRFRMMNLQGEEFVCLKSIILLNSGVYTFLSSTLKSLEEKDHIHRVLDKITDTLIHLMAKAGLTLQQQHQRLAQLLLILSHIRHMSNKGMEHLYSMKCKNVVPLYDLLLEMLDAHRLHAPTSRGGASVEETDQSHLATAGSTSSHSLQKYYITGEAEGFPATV
# Assay: qHTS assay to identify small molecule antagonists of the estrogen receptor alpha (ER-alpha) signaling pathway (AID 743069; active = well fitted curve in the direction sought with a large enough effect in the signal ratio in the repeat runs, not every such curve was filed as active; inconclusive = weak or mixed curves, or effect the other way; inactive = no such curve, though single readings can be large or run the other way; the % refers to the signal ratio)
# Settings: HEK293 ER-alpha-UAS-bla, beta-lactamase ratio, antagonist mode; activity, negative = inhibition: at 69.4 µM (top of the series) unless noted
# Summary of the method: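 Beta-lactamase FRET fluorescence is read after 2 hr at room temperature with LiveBLAzer B/G substrate. Before that, ER-alpha-bla HEK293 cells sit 4 hr after plating, then receive compound plus 17beta-estradiol and incubate 18 hr at 37C.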
Structure (SMILES),Potency,"activity, negative = inhibition"
O=NN1CCNCC1,inactive,–
N#C/C(N)=C(/N)C#N,inactive,–
CCCCCCCCC(=O)NCc1ccc(O)c(OC)c1,"inconclusive: 24.5 µM [activator, partial curve]",–
O=C(O)C(Br)CBr (stereo unspecified),"inconclusive: 17.7 µM [activator, partial curve]",–
CC[C@@H](CO)NC(=O)[C@@H]1C=C2c3cccc4c3c(cn4C)C[C@H]2N(C)C1,inconclusive: 26.8 µM,–
Cc1cc(O)ccc1Cl,"inconclusive: 24.5 µM [activator, partial curve]",–
C[C@]12CCC(=O)C(O)=C1CC[C@@H]1[C@@H]2CC[C@]2(C)C(=O)CC[C@@H]12,"inconclusive: 19 µM [activator, partial curve] and inconclusive: 24.5 µM [activator, partial curve]",inconclusive: 22.7%
Cc1ccc(N)cc1Cl,inactive,–
CC[C@H]1C[C@H]2[C@@H]3CCC4=CC(=O)CC[C@@H]4[C@H]3CC[C@]2(C)[C@H]1O,–,inconclusive: -10.7%
CSC(=O)c1c(C(F)F)nc(C(F)(F)F)c(C(=O)SC)c1CC(C)C,inconclusive: 61.3 µM [inhibitor],–
C[C@]12C=CC(=O)C=C1CC[C@@H]1[C@@H]2CC[C@@]2(C)[C@H]1CC[C@]2(C)O,"inconclusive: 0.674 µM [activator, full curve]",–
CC(O)(CS(=O)(=O)c1ccc(F)cc1)C(=O)Nc1ccc(C#N)c(C(F)(F)F)c1 (stereo unspecified),"inconclusive: 7.18 µM [rising, full curve]",inconclusive: -22.6%
Cc1c([N+](=O)[O-])cc2c(c1[N+](=O)[O-])C(C)(C)CC2(C)C,–,inconclusive: 24.1%
